Molecules are shown by their SMILES.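 Briefly, cells in 96-well plates were exposed to five compound concentrations for 48 h, and endpoints were estimated by linear interpolation. GI50 marks 50% less growth.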 Active and inactive are the calls of the source. No stated cut-off is given here; in the data, active = GI50 up to about 1.1 µM and inactive = higher.

This assay relates to NCI-H322M. The experiment in a line: NCI anticancer screen, dose series, 48 h.
Regarding `Cc1cc(Cl)ccc1OCC(=O)Oc1c(Cl)c(Cl)c(Cl)c(Cl)c1Cl`, the GI50 was inactive: 20.8 µM.

`CCNc1cc2c(cc1O)CC[C@@H]1[C@@H]2CC[C@]2(C)[C@@H](O)CC[C@@H]12`: the GI50 was active: 0.644 µM.

Regarding `COc1ccc(C2C3=C(COC3=O)Oc3cc4c(cc32)OCO4)cc1OC` (stereo not drawn), the GI50 was inactive: 2.69 µM.

Consider `O=C1C(c2c(O)[nH]c3ccccc23)=Nc2ccc(Br)cc21`, for which the GI50 is inactive: 28.4 µM.

With `COc1cccc2c3cccc(OC)c3c3[nH]cnc3c12`, the GI50 was inactive: 3.6 µM.

For the compound `O=C(c1ccc(Cl)cc1)N(C(=S)N1CCN(c2ccccc2)CC1)c1ccccc1`, the GI50 was inactive: > 100 µM.

As to `CCOC(=O)c1sc2c(c1OC(=O)c1ccc(OC)cc1)c(=O)n(-c1ccccc1)c(=S)n2-c1ccccc1`, the GI50 is inactive: > 100 µM.

With `CN(C)C1(C#N)CCC2(CC1)OCCO2`, the GI50 is inactive: > 100 µM.

Turning to `C#CC1=CC(=O)C(OC)=CC1=O`, the GI50 is inactive: > 100 µM.

Consider `O=[N+]([O-])c1ccc(CN(CCCl)OCCCl)cc1`, for which the GI50 was inactive: > 100 µM.

With `COc1cc(C)cc2c1c(=O)c1ccccc1n2C`, the GI50 is inactive: 49.4 µM.

On to `O=S(=O)(CC(Cl)c1ccccc1)c1nc2ccccc2s1` (stereo not drawn), for which the GI50 was inactive: 18.4 µM.

Regarding `O=C(/N=C(/Nc1ccccc1)SCCS/C(=N\C(=O)c1ccccc1)Nc1ccccc1)c1ccccc1`, the GI50 is inactive: > 100 µM.

For the compound `Cc1cc2c(C)n(Cc3ccccc3Cl)nc2c(C(=O)O)c1C`, the GI50 is inactive: > 100 µM.

For the compound `O=[N+]([O-])c1ccc(/N=N/c2c(O)ccc3ccccc23)cc1`, the GI50 was inactive: > 100 µM.

For the compound `ClCCCc1ccccc1C1=NCCc2ccccc21`, the GI50 was inactive: > 100 µM.

As to `CC1=NN(c2ccccc2)C(=O)C1/N=N/c1ccc(Br)c(C)c1` (stereo not drawn), the GI50 was inactive: > 100 µM.

Take `CCOC(=O)c1cnc2c(ccc3ncccc32)c1OCC`: the GI50 is inactive: > 100 µM.

Consider `CC1(C)OP(=O)(O)C=C1Sc1ccc([N+](=O)[O-])cc1[N+](=O)[O-]`, for which the GI50 is inactive: > 100 µM.

`Cc1cccc(C)c1NC(=S)NC=C1C(=O)c2ccccc2C1=O`: the GI50 was inactive: 30.8 µM.

For `Oc1c(-c2ccccc2)nc2ccccn12`, the GI50 was inactive: > 100 µM.

Consider `CCOc1ccccc1NC(=O)CC1SC(Nc2ccc([N+](=O)[O-])cc2)=NC1=O` (stereo not drawn), for which the GI50 is inactive: 28.1 µM.

Regarding `COC(=O)CSc1ccccc1`, the GI50 is inactive: > 100 µM.

Take `O=S(=O)(/N=C(\NO)Nc1ccc(Cl)cc1)C1CC=C(c2ccon2)S1` (stereo not drawn): the GI50 is inactive: 46.1 µM.

As for `C=C1CC(Cn2ccc(=O)[nH]c2=O)(c2ccc(OC)cc2)OC1=O` (stereo not drawn), the GI50 was inactive: 33.9 µM.

As for `CCOC(=O)c1sc2c(sc(=O)n2-c2ccccc2)c1O`, the GI50 is inactive: > 100 µM.

Consider `COc1cc2ncnc(Nc3cccc(Br)c3)c2cc1OC`, for which the GI50 is active: 1.09 µM.

With `CCOC(=O)NC(NC1=NCCS1)(C(=O)OCC)C(F)(F)F` (stereo not drawn), the GI50 is inactive: > 100 µM.

With `CCCC(=O)OCOC(=O)N(C)/N=N/c1ccc(C(=O)OCC)cc1`, the GI50 was inactive: 32.5 µM.

Turning to `CCOC(=O)C(=O)/C=C(\C)Nc1c(NC2OCC(OC(C)=O)C(OC(C)=O)C2OC(C)=O)nc(SC)[nH]c1=O` (stereo not drawn), the GI50 was inactive: > 100 µM.

On to `NC(=O)C(N)Cc1ccc(O)cn1` (stereo not drawn), for which the GI50 was inactive: > 100 µM.

Consider `CC[n+]1[b-](C(C)(C)C)n(/N=C(\C)C(C)(C)C)[b-](C(C)(C)C)[n+]1CC`, for which the GI50 is inactive: > 100 µM.

As for `CCCCCCCCCCCCCCCCCc1cccc(OCOCCOC)c1C(=O)O`, the GI50 is inactive: 20 µM.

With `NC(Cc1ccc(OCc2ccccc2)cn1)C(=O)O` (stereo not drawn), the GI50 is inactive: > 100 µM.

Regarding `COC(=O)C(CCSC)NC(=O)CSc1nnc(COc2ccc(Cl)cc2)n1-c1ccccc1` (stereo not drawn), the GI50 is inactive: 16.1 µM.

As to `c1ccc2cc(CN3CCC(C4CCN(Cc5ccc6ccccc6c5)CC4)CC3)ccc2c1`, the GI50 is inactive: 5.27 µM.

In the case of `O=C(NCCCCNc1cccccc1=O)OCc1ccccc1`, the GI50 is inactive: > 100 µM.

On to `CCCN(CCC)C(=S)N/N=C/c1ccccn1`, for which the GI50 is active: < 0.01 µM.

On to `CCC(CON(C)c1ccccc1)(SC)SC`, for which the GI50 is inactive: > 100 µM.

Regarding `CSc1nc(Br)nc2c1ncn2C1CC(Oc2ccc(C)cc2)C(COc2ccc(C)cc2)O1` (stereo not drawn), the GI50 is inactive: > 100 µM.

In the case of `CC(=O)O[C@H]1C[C@](C)(O)[C@@]23CC([C@@H](OC(=O)C(C)(C)O)[C@@H](OC(C)=O)C2(COC(=O)c2ccccc2)[C@H]1OC(C)=O)C(C)(C)O3` (stereo partly drawn), the GI50 is inactive: > 100 µM.

Take `OC(c1ccccc1)(c1cccnc1)C(O)(c1ccccc1)c1cccnc1` (stereo not drawn): the GI50 was inactive: > 100 µM.

In the case of `[N-]=[N+]=CC(=O)C1(C(=O)C=[N+]=[N-])CC1`, the GI50 was inactive: > 100 µM.

In the case of `N#CC(/C(=N\NC(N)=S)C(=O)NC1C2CC3CC(C2)CC1C3)c1ccc(Cl)cc1` (stereo not drawn), the GI50 was inactive: > 100 µM.

Consider `CCSc1c(C)c2c(n(Cc3ccc(OC)cc3)c1=O)Cc1ccccc1C2`, for which the GI50 is inactive: 21.3 µM.

With `Cc1cc(OC(=O)NCn2cc(-c3ccccc3)nn2)ccc1Cl`, the GI50 was inactive: > 100 µM.

Take `CC(=O)[C@@]1(C)CC2(CCN(C)CC2)OC1C` (stereo partly drawn): the GI50 was inactive: > 100 µM.

In the case of `CN[C@H](C)[C@@H](OC)c1ccccc1`, the GI50 is inactive: > 100 µM.

As for `COc1ccc(P2(=S)OC(C)(C)C(C)(C)O2)cc1`, the GI50 is inactive: > 100 µM.

In the case of `CC(=O)c1cccc(NC(=O)C(=O)NNc2nnc(S)n2N)c1`, the GI50 was inactive: 13.1 µM.

On to `O=[N+]([O-])c1ccc(N/N=C2\C=CCCC2)c([N+](=O)[O-])c1`, for which the GI50 is inactive: 28.2 µM.

In the case of `COc1cc2c(cc1C1COc3cc4occc4cc3C1=O)OCO2` (stereo not drawn), the GI50 was inactive: > 100 µM.

`Cc1cc([C@H](C#N)c2nc3ccccc3s2)nc(Cl)n1`: the GI50 is inactive: 21.8 µM.

In the case of `CC1=C2C(=O)c3ccccc3C(=O)[C@H]2[C@H]2CCO[C@H]2O1`, the GI50 was inactive: > 100 µM.

In the case of `O=c1[nH]ncc2[nH]c3c(c12)CCCc1ccccc1-3`, the GI50 is inactive: 96.2 µM.

`Cc1ccc(N2CCc3c(C)c(C#N)c4nc5ccccc5n4c32)cc1`: the GI50 is inactive: > 100 µM.

For the compound `CSc1nc(NC2OCC(OC(C)=O)C(OC(C)=O)C2OC(C)=O)c(/N=C(\C)C(C)=O)c(=O)[nH]1` (stereo not drawn), the GI50 is inactive: > 100 µM.

Regarding `O=[N+]([O-])c1ccc(/N=N/c2c(O)ccc3cc(S(=O)(=O)O)ccc23)cc1`, the GI50 was inactive: > 100 µM.

Turning to `c1ccc(/C(=N\Nc2ccccn2)c2ccccn2)cc1`, the GI50 was active: 0.519 µM.

As for `O=C(NC1CCC[C@H]1OC(=O)c1ccccc1)c1ccccc1` (stereo partly drawn), the GI50 was inactive: > 100 µM.

Turning to `COC(=O)c1cc(C#Cc2cc(OC)ccc2OC)ccc1OC`, the GI50 was inactive: > 100 µM.

As to `Nc1cc(OCC2CCCCC2)nc(N)n1`, the GI50 was inactive: > 100 µM.

With `COc1ccc(/C=C/c2cc(OC)c(OC(C)=O)c(OC)c2)cc1`, the GI50 was inactive: 36 µM.
